This is one part of the list.
What was measured:
Assay in all cases: glycan array binding signal (z-score within array); higher = stronger binding
Settings in all cases: glycan notation: IUPAC condensed, linker removed
Neu5Ac(a2-3)Gal(b1-4)Glc = molecular target: Neu5Ac(a2-3)Gal(b1-4)Glc
Outline: (§1)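 The Consortium for Functional Glycomics database supplied 3228 glycan arrays, of which those lacking an available protein sequence were dropped. The binding signal, a within-array Z-score, was averaged across arrays of the same protein sequence and across linkers. Negative scores can be read as non-binding.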

[1] = molecular target: Neu5Ac(a2-3)Gal(b1-4)GlcNAc
Outline: as §1

[2] = molecular target: Neu5Ac(a2-3)Gal(b1-4)GlcNAc(b1-2)Man
Outline: as §1

[3] = molecular target: Neu5Ac(a2-3)Gal(b1-4)GlcNAc(b1-2)Man(a1-3)[GlcNAc(b1-4)][Neu5Ac(a2-3)Gal(b1-4)GlcNAc(b1-2)Man(a1-6)]Man(b1-4)GlcNAc(b1-4)GlcNAc
Outline: as §1

[4] = molecular target: Neu5Ac(a2-3)Gal(b1-4)GlcNAc(b1-2)Man(a1-3)[Neu5Ac(a2-3)Gal(b1-4)GlcNAc(b1-2)Man(a1-6)]Man(b1-4)GlcNAc(b1-4)GlcNAc
Outline: as §1

[5] = molecular target: Neu5Ac(a2-3)Gal(b1-4)GlcNAc(b1-2)Man(a1-3)[Neu5Ac(a2-3)Gal(b1-4)GlcNAc(b1-2)Man(a1-6)]Man(b1-4)GlcNAc(b1-4)[Fuc(a1-6)]GlcNAc
Outline: as §1

[6] = molecular target: Neu5Ac(a2-3)Gal(b1-4)GlcNAc(b1-2)Man(a1-3)[Neu5Ac(a2-6)Gal(b1-4)GlcNAc(b1-2)Man(a1-6)]Man(b1-4)GlcNAc(b1-4)GlcNAc
Outline: as §1

[7] = molecular target: Neu5Ac(a2-3)Gal(b1-4)GlcNAc(b1-2)[Neu5Ac(a2-3)Gal(b1-4)GlcNAc(b1-4)]Man(a1-3)[GlcNAc(b1-4)][Neu5Ac(a2-3)Gal(b1-4)GlcNAc(b1-2)[Neu5Ac(a2-3)Gal(b1-4)GlcNAc(b1-6)]Man(a1-6)]Man(b1-4)GlcNAc(b1-4)GlcNAc
Outline: as §1

[8] = molecular target: Neu5Ac(a2-3)Gal(b1-4)GlcNAc(b1-2)[Neu5Ac(a2-3)Gal(b1-4)GlcNAc(b1-4)]Man(a1-3)[GlcNAc(b1-4)][Neu5Ac(a2-3)Gal(b1-4)GlcNAc(b1-4)Man(a1-6)]Man(b1-4)GlcNAc(b1-4)GlcNAc
Outline: as §1

[9] = molecular target: Neu5Ac(a2-3)Gal(b1-4)GlcNAc(b1-2)[Neu5Ac(a2-3)Gal(b1-4)GlcNAc(b1-6)]Man(a1-6)[Neu5Ac(a2-3)Gal(b1-4)GlcNAc(b1-2)Man(a1-3)][GlcNAc(b1-4)]Man(b1-4)GlcNAc(b1-4)GlcNAc
Outline: as §1

[10] = molecular target: Neu5Ac(a2-3)Gal(b1-4)GlcNAc(b1-3)Gal
Outline: as §1

[11] = molecular target: Neu5Ac(a2-3)Gal(b1-4)GlcNAc(b1-3)Gal(b1-3)GlcNAc
Outline: as §1

[12] = molecular target: Neu5Ac(a2-3)Gal(b1-4)GlcNAc(b1-3)Gal(b1-4)GlcNAc
Outline: as §1

[13] = molecular target: Neu5Ac(a2-3)Gal(b1-4)GlcNAc(b1-3)Gal(b1-4)GlcNAc(b1-2)Man(a1-3)[Neu5Ac(a2-3)Gal(b1-4)GlcNAc(b1-3)Gal(b1-4)GlcNAc(b1-2)Man(a1-6)]Man(b1-4)GlcNAc(b1-4)GlcNAc
Outline: as §1

[14] = molecular target: Neu5Ac(a2-3)Gal(b1-4)GlcNAc(b1-3)Gal(b1-4)GlcNAc(b1-3)Gal(b1-4)GlcNAc
Outline: as §1

[15] = molecular target: Neu5Ac(a2-3)Gal(b1-4)GlcNAc(b1-3)Gal(b1-4)GlcNAc(b1-3)Gal(b1-4)GlcNAc(b1-2)Man(a1-3)[Neu5Ac(a2-3)Gal(b1-4)GlcNAc(b1-3)Gal(b1-4)GlcNAc(b1-3)Gal(b1-4)GlcNAc(b1-2)Man(a1-6)]GalNAc
Outline: as §1

[16] = molecular target: Neu5Ac(a2-3)Gal(b1-4)GlcNAc(b1-3)Gal(b1-4)GlcNAc(b1-3)GalNAc
Outline: as §1

[17] = molecular target: Neu5Ac(a2-3)Gal(b1-4)GlcNAc(b1-3)Gal(b1-4)GlcNAc(b1-3)[Neu5Ac(a2-3)Gal(b1-4)GlcNAc(b1-3)Gal(b1-4)GlcNAc(b1-6)]GalNAc
Outline: as §1

[18] = molecular target: Neu5Ac(a2-3)Gal(b1-4)GlcNAc(b1-3)Gal(b1-4)GlcNAc(b1-6)[Gal(b1-3)]GalNAc
Outline: as §1

[19] = molecular target: Neu5Ac(a2-3)Gal(b1-4)GlcNAc(b1-3)Gal(b1-4)[Fuc(a1-3)]GlcNAc
Outline: as §1

[20] = molecular target: Neu5Ac(a2-3)Gal(b1-4)GlcNAc(b1-3)GalNAc
Outline: as §1

[21] = molecular target: Neu5Ac(a2-3)Gal(b1-4)GlcNAc(b1-3)[Neu5Ac(a2-3)Gal(b1-4)GlcNAc(b1-6)]GalNAc
Outline: as §1

[22] = molecular target: Neu5Ac(a2-3)Gal(b1-4)GlcNAc(b1-6)GalNAc
Outline: as §1

[23] = molecular target: Neu5Ac(a2-3)Gal(b1-4)GlcNAc(b1-6)[Gal(b1-3)]GalNAc
Outline: as §1

[24] = molecular target: Neu5Ac(a2-3)Gal(b1-4)GlcNAc(b1-6)[Neu5Ac(a2-3)Gal(b1-3)]GalNAc
Outline: as §1

[25] = molecular target: Neu5Ac(a2-3)Gal(b1-4)GlcNAc6S
Outline: as §1

[26] = molecular target: Neu5Ac(a2-3)Gal(b1-4)[Fuc(a1-3)]GlcNAc
Outline: as §1

[27] = molecular target: Neu5Ac(a2-3)Gal(b1-4)[Fuc(a1-3)]GlcNAc(b1-2)Man
Outline: as §1

[28] = molecular target: Neu5Ac(a2-3)Gal(b1-4)[Fuc(a1-3)]GlcNAc(b1-3)Gal
Outline: as §1

[29] = molecular target: Neu5Ac(a2-3)Gal(b1-4)[Fuc(a1-3)]GlcNAc(b1-3)Gal(b1-4)GlcNAc
Outline: as §1

[30] = molecular target: Neu5Ac(a2-3)Gal(b1-4)[Fuc(a1-3)]GlcNAc(b1-3)Gal(b1-4)[Fuc(a1-3)]GlcNAc(b1-3)Gal(b1-4)[Fuc(a1-3)]GlcNAc
Outline: as §1

[31] = molecular target: Neu5Ac(a2-3)Gal(b1-4)[Fuc(a1-3)]GlcNAc(b1-3)GalNAc
Outline: as §1

[32] = molecular target: Neu5Ac(a2-3)Gal(b1-4)[Fuc(a1-3)]GlcNAc(b1-6)[Gal(b1-3)]GalNAc
Outline: as §1

[33] = molecular target: Neu5Ac(a2-3)Gal(b1-4)[Fuc(a1-3)]GlcNAc(b1-6)[Neu5Ac(a2-3)Gal(b1-3)]GalNAc
Outline: as §1

[34] = molecular target: Neu5Ac(a2-3)Gal(b1-4)[Fuc(a1-3)]GlcNAc6S
Outline: as §1

[35] = molecular target: Neu5Ac(a2-3)Gal6S(b1-4)GlcNAc
Outline: as §1

[36] = molecular target: Neu5Ac(a2-3)Gal6S(b1-4)[Fuc(a1-3)]GlcNAc
Outline: as §1

Neu5Ac(a2-3)GalNAc = molecular target: Neu5Ac(a2-3)GalNAc
Outline: as §1

B1: HPL (Tachypleus tridentatus) (protein)
chain: MEDDCTCVTDRSLEGKLMKHPSTPAVYQILDGCRRLVPNPPTYNNIYKNWECIQSNILEKLLCKCDSLSNGAELIKGSGDTVYLLSNGVKRPIADPETFNGFCFDWNKIKTYSDIVINSLSTGPIIIIKHHHHHH
Neu5Ac(a2-3)Gal(b1-4)Glc
  glycan array binding signal (z-score): -0.177
[1]
  glycan array binding signal (z-score): -0.2
[2]
  glycan array binding signal (z-score): 0.852
[3]
  glycan array binding signal (z-score): -0.271
[4]
  glycan array binding signal (z-score): -0.142
[5]
  glycan array binding signal (z-score): -0.143
[6]
  glycan array binding signal (z-score): 0.123
[7]
  glycan array binding signal (z-score): -0.344
[8]
  glycan array binding signal (z-score): -0.189
[9]
  glycan array binding signal (z-score): -0.292
[10]
  glycan array binding signal (z-score): -0.418
[11]
  glycan array binding signal (z-score): -0.333
[12]
  glycan array binding signal (z-score): -0.19
[13]
  glycan array binding signal (z-score): 0.434
[14]
  glycan array binding signal (z-score): -0.261
[15]
  glycan array binding signal (z-score): 1.54
[16]
  glycan array binding signal (z-score): -0.193
[17]
  glycan array binding signal (z-score): 0.27
[18]
  glycan array binding signal (z-score): 0.185
[19]
  glycan array binding signal (z-score): 0.12
[20]
  glycan array binding signal (z-score): -0.163
[21]
  glycan array binding signal (z-score): -0.093
[22]
  glycan array binding signal (z-score): 0.147
[23]
  glycan array binding signal (z-score): 0.429
[24]
  glycan array binding signal (z-score): -0.253
[25]
  glycan array binding signal (z-score): -0.213
[26]
  glycan array binding signal (z-score): -0.326
[27]
  glycan array binding signal (z-score): -0.18
[28]
  glycan array binding signal (z-score): -0.447
[29]
  glycan array binding signal (z-score): -0.314
[30]
  glycan array binding signal (z-score): 0.082
[31]
  glycan array binding signal (z-score): 0.177
[32]
  glycan array binding signal (z-score): 0.043
[33]
  glycan array binding signal (z-score): 0.806
[34]
  glycan array binding signal (z-score): -0.273
[35]
  glycan array binding signal (z-score): -0.421
[36]
  glycan array binding signal (z-score): -0.291
Neu5Ac(a2-3)GalNAc
  glycan array binding signal (z-score): -0.219

Source: the supplement of paper PMC8728848
